Results from article PMC7819943, “Rice protein-binding microarrays: a tool to detect cis-acting elements near promoter regions in rice”.
This is one part of the list.

Each sequence was assayed against T1, OsWOX13 (Oryza sativa, UniProt Q5QMM3 1-267) (assay: protein-binding microarray (RPBM); PBS, 2% BSA, 51.3 ng/ul salmon testes DNA, 50 uM zinc acetate, 200 nM TF, 25 C, 1 h; high values mean tight binding). Conditions: protein: recombinant; tags: N-terminal polyhistidine and DsRed monomer fusion (pET32a); label: CyDye5-dUTP incorporated in the synthesized complementary strand; 3' TTTTT single-stranded linker to array surface; dsDNA, one strand shown.
T1 sequence: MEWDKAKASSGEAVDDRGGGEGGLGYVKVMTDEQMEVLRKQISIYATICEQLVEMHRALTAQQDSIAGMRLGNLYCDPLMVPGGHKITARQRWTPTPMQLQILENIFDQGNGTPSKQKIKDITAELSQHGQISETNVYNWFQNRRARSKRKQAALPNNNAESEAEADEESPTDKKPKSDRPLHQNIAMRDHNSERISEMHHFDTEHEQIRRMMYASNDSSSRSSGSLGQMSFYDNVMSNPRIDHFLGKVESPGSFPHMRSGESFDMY
Outline: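 A custom Agilent array was converted to double-stranded form by primer extension with Cy5-dUTP and blocked with 2% BSA. Protein at 200 nM in PBS with 2% BSA, salmon testes DNA and 50 µM zinc acetate was applied for 1 h at 25 °C, followed by washing. The proteins were polyhistidine–DsRed N-terminal fusions of transcription factors, expressed in E. coli BL21-CodonPlus and Ni–NTA-purified. The binding signal is per-feature fluorescence intensity (arbitrary units) from an Axon 4000B scanner.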

Sequence | binding signal
TGGTGTAGATTGATTTATGTAGTACGGATTAATTGGCATTCGGAGTCACCTAGTGCAG | 50300 fluorescence intensity (a.u.)
GATATGTAGGACCCACATGATTCAATGACATGTGGGTCAGCGGAGTCACCTAGTGCAG | 48900 fluorescence intensity (a.u.)
ATAATTTAGAATTATTATTTATTTTATTTGTGACTGGCTTCGGAGTCACCTAGTGCAG | 5280 fluorescence intensity (a.u.)
AAGTTAATTATATACTATAGAATTATCATTCCGATCCCTACGGAGTCACCTAGTGCAG | 25600 fluorescence intensity (a.u.)
CCCACTAACAGAGTAACCCAACAGCCCAACTGATTTTGATCGGAGTCACCTAGTGCAG | 4440 fluorescence intensity (a.u.)
GGATAATTTTGCGCGTAATTCAAATAAGACTTGTGTAGCGCGGAGTCACCTAGTGCAG | 28000 fluorescence intensity (a.u.)
GAATAATTTACCCATTTATTATTGATCTTTATTCTTTGACCGGAGTCACCTAGTGCAG | 30400 fluorescence intensity (a.u.)
TTCATGGTGATTGATCACTCTCGGACACTGATTTTCCACTCGGAGTCACCTAGTGCAG | 46300 fluorescence intensity (a.u.)
GTTTGATTGTCCTAAAATTTCAACTAACACTGTATCATTCCGGAGTCACCTAGTGCAG | 34500 fluorescence intensity (a.u.)
TTGTGATTTCCTTAATATAGAATAGAACCCTGCTCATATACGGAGTCACCTAGTGCAG | 11500 fluorescence intensity (a.u.)
CCAATCTAAATTAAATTGTGACCATTTAACTCACCATGTTCGGAGTCACCTAGTGCAG | 35500 fluorescence intensity (a.u.)
TTGGATAATTGTCTAACCTAAAAGTGGCAAATAGTTAAATCGGAGTCACCTAGTGCAG | 9260 fluorescence intensity (a.u.)
AAGCAATGATTGGATTTCACGTGGCCTGCCTGCGGAGTAGCGGAGTCACCTAGTGCAG | 43300 fluorescence intensity (a.u.)
ACCCAGAGCAATTTAAAATCTAATTGCATTCCTATCTTCACGGAGTCACCTAGTGCAG | 9940 fluorescence intensity (a.u.)
TTAGATAGGAAAACTTATGACTGCATTTAAAATGGGATGGCGGAGTCACCTAGTGCAG | 10500 fluorescence intensity (a.u.)
ATAACAAAATTAATGAGAGAAGAGAAGAGTTAATCCAGTGCGGAGTCACCTAGTGCAG | 7620 fluorescence intensity (a.u.)
CCCAAGTCAATCAAATACTGAATCCTTTGCACTGATCATTCGGAGTCACCTAGTGCAG | 18300 fluorescence intensity (a.u.)
AACTCTAATTTACTGTTGGTTGGTGCAATATCAGATGGATCGGAGTCACCTAGTGCAG | 10300 fluorescence intensity (a.u.)
GAATTAGCTTGATTGACAGAAACAAATGGCTACAACTACACGGAGTCACCTAGTGCAG | 50600 fluorescence intensity (a.u.)
TCAACATTAACTGATTACCATTAATTAATAATTTATGATCCGGAGTCACCTAGTGCAG | 39600 fluorescence intensity (a.u.)
CAAATTAAGCGAATAATTTATTTATCAATAGAACTTCAATCGGAGTCACCTAGTGCAG | 5950 fluorescence intensity (a.u.)

Sequence | binding signal
CAAGATTTATTGTCCTCCAACTGAACTTGGTGGGTGTGGTCGGAGTCACCTAGTGCAG | 6920 fluorescence intensity (a.u.)
CACTAATGGCTGACAATTACTACTTCTGACCACTCATACTCGGAGTCACCTAGTGCAG | 11700 fluorescence intensity (a.u.)
TTTAGGGTTAATTGGACCCATGTCATTACAAATTTGCCATCGGAGTCACCTAGTGCAG | 19800 fluorescence intensity (a.u.)
GGCGGTTTAATTGTTCGTTAGGAGCCGAATTACGGCATAGCGGAGTCACCTAGTGCAG | 4100 fluorescence intensity (a.u.)
AACTAATCTCTGACTTATAATTTCTCATATACTATAAGGTCGGAGTCACCTAGTGCAG | 10100 fluorescence intensity (a.u.)
ATCGAATAAATTATAATGGTCCATGTGGTCTATATATTTTCGGAGTCACCTAGTGCAG | 5830 fluorescence intensity (a.u.)
GATGGTCTATTAGTCCGTGATTAATTAAGTATTAGCTATTCGGAGTCACCTAGTGCAG | 8910 fluorescence intensity (a.u.)
AAAATTGTAACTGTGCCATTATAATTTTACAAAATTTGAGCGGAGTCACCTAGTGCAG | 7630 fluorescence intensity (a.u.)
TAGGGATTTAAATTGGTCCTGTTTAAATAGTTTGAGGTACCGGAGTCACCTAGTGCAG | 13100 fluorescence intensity (a.u.)
TCTCGCCCAATTGGCAATCACAGGTTCAATTCGCAGCCAACGGAGTCACCTAGTGCAG | 39000 fluorescence intensity (a.u.)
ATCTAATTTGTATATAAATTGAATAAATTTGATCACGTGACGGAGTCACCTAGTGCAG | 16100 fluorescence intensity (a.u.)
TGAATTTGATTAAAACCTAATTGTTTAAAATATTAAGTCACGGAGTCACCTAGTGCAG | 16900 fluorescence intensity (a.u.)
CATTGACTAGTATAAATTTGAACTAGCCAACATCATATAACGGAGTCACCTAGTGCAG | 6640 fluorescence intensity (a.u.)
AACAACTGTACTAATTGGGCTGCTGTCCTGACTGACTCAGCGGAGTCACCTAGTGCAG | 5980 fluorescence intensity (a.u.)
GGATGATCAAAATTAGACACAGAAACTCATGACTGCACTTCGGAGTCACCTAGTGCAG | 15700 fluorescence intensity (a.u.)
CAGTGACAGCGAGGAAATTATAGTTGCCTGGTCAAGTAAACGGAGTCACCTAGTGCAG | 6230 fluorescence intensity (a.u.)
CTTCTAATTAGAGACTTGGTGTGTCACATAGTCGTCAGGTCGGAGTCACCTAGTGCAG | 19200 fluorescence intensity (a.u.)
TTACTTTGATCAAAATCAAATTGTTTTAAATTTGACAAAGCGGAGTCACCTAGTGCAG | 6720 fluorescence intensity (a.u.)
CAGATGTGACTGGTATATATTGAAAGGTGCGAGGCACTGGCGGAGTCACCTAGTGCAG | 9620 fluorescence intensity (a.u.)
ACGTCCAAATCACATTATATCAGTTCCTGTTTGTAACCGCCGGAGTCACCTAGTGCAG | 3210 fluorescence intensity (a.u.)
TGGAATTGGATACTTTCATCTGGATTTCCTGGATGTGTGGCGGAGTCACCTAGTGCAG | 4120 fluorescence intensity (a.u.)
